Assay results reported in PubChem BioAssay AID757 (NMMLSC, 2007).
Among all 190,000 compounds or so, about 520 (0.27%) were called active. The inconclusive results got no clear call from the source; some entries with a clear call stand among them for comparison.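 The calls were made as follows: active = GTP binding activity at least 20 points away from the 100% control level, either lower or higher; inconclusive = compound flagged as likely green fluorescent, judged across all proteins; inactive = the rest.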

Target: Ras-related C3 botulinum toxin substrate 1 (Homo sapiens) (UniProt P63000)
Assay: wildtype Rac1 GTP binding modulators, primary screen, biochemical, GST-Rac1 beads, flow cytometry, multiplex (AID 757)
Settings: fluorescent GTP binding, at 10 µM, actives lie on both sides, 0 = cold GTP competed, 100 = untreated

Structure (SMILES) | GTP binding activity (% of control)
NC(=O)C(=O)N/N=C/c1c[nH]c2ccc(Br)cc12 | inconclusive: 91%
CC(C)n1cc(/C=C2\NC(=O)N(c3cccc(Cl)c3)C2=O)c2ccccc21 | inconclusive: 109%
CSc1nc(C)cc(SC(C(C)=O)C(=O)Nc2ccccc2)n1 (stereo not drawn) | inconclusive: 96%
Cc1ccccc1CSc1ccc(-c2ccc3c(c2)OCO3)nn1 | inactive: 98%
S=c1[nH]nc(-c2ccco2)n1-c1ccccc1Cl | active: 77%
NC(=S)N=Nc1c(O)[nH]c2c(Br)cc(Br)cc12 | active: 71%
CCS(=O)(=O)Nc1cccc(C(=O)CC2(O)C(=O)Nc3ccccc32)c1 (stereo not drawn) | inconclusive: 101%
COc1ccc2c(c1)CC/C(=C/c1ccncc1)C2=O | inconclusive: 100%
O=C(Nc1nc2ccccc2[nH]1)c1ccc(Cl)c(S(=O)(=O)N2CCCC2)c1 | inconclusive: 91%
CCOC(=O)NC(=O)CSc1nnc(C2CC2)n1Cc1ccco1 | inactive: 96%
Cc1c(N)cccc1-n1cccc1 | inconclusive: 99%
COc1ccc(-c2cc(C(=O)Oc3ccc([N+](=O)[O-])cc3)c3ccccc3n2)cc1 | inconclusive: 95%
Cc1cccc(C(=O)Oc2ccc(/C=N/O)cc2)c1 | inconclusive: 104%
CCCCOc1ccc(S(=O)(=O)NNC(=O)c2cc3ccccc3o2)cc1 | inconclusive: 88%
CC(C)(C)c1ccc(CNc2cc(N3CCOCC3)ccc2[N+](=O)[O-])cc1 | inconclusive: 94%
O=C(O)c1ccc(NS(=O)(=O)c2ccc3c(c2)C(=O)c2ccccc2C3=O)cc1 | active: 72%
Cc1ccc(NC(=O)c2ccccc2F)cc1S(=O)(=O)N1CCCCCC1 | inconclusive: 92%
C=CCNC(=O)C(=O)NCCOc1ccccc1Cl | inactive: 106%
CC(C)Cc1nnc(NC(=O)CCC(=O)N2CCN(S(=O)(=O)c3ccccc3)CC2)s1 | inconclusive: 103%
COC(=O)CN1C(=O)CC(C)(C)S(=O)c2ccccc21 (stereo not drawn) | inconclusive: 106%
Cn1c(N)c(C(=O)COC(=O)CCCOc2ccc(Cl)cc2Cl)c(=O)n(C)c1=O | inconclusive: 88%
CNC(=O)c1cc(C(=O)c2ccccc2C(F)(F)F)c[nH]1 | inconclusive: 91%
Nc1[nH]n2c(=O)c3c(nc2c1N=Nc1ccc(Cl)cc1)CCCC3 | active: 74%
Cc1cccc(NC(=O)c2cccc(C(F)(F)F)c2)c1 | inactive: 98%

Structure (SMILES) | GTP binding activity (% of control)
O=C1CCCN1c1ccc(S(=O)(=O)Oc2cccc(Cl)c2)cc1[N+](=O)[O-] | inconclusive: 105%
CCC(COC(=O)Nc1ccccc1)NC(=O)OC(C)C (stereo not drawn) | inactive: 99%
O=S(=O)(c1cccc2cccc(Cl)c12)N1CCCC1 | inconclusive: 103%
Cc1ccc(-c2nnc(SCC(=O)Nc3nccs3)n2N)cc1 | inactive: 101%
CC(C)[C@H](NC(N)=O)C(=O)Nc1ccc(F)c(Cl)c1 | inconclusive: 89%
CCOC(=O)c1c2ccc(OCC(=O)N/N=C/c3ccc(C)cc3)cc2n2ccccc12 | inconclusive: 93%
C=CCn1c(SCc2nnc(-c3ccccc3)o2)nnc1C(O)c1ccccc1 (stereo not drawn) | inconclusive: 99%
O=C(NCc1ccccc1F)Nc1ccc([N+](=O)[O-])cc1 | inactive: 95%
COc1cc(OC)c(/C=N/NC(N)=S)cc1Br | inconclusive: 98%
COc1ccc(OC)c(NC(=O)CSc2nnc(C3CCCCC3)o2)c1 | inactive: 98%
Cn1c(CNC(=O)c2ccc(Cl)c(Cl)c2)nnc1SCC(=O)Nc1sc2c(c1C#N)CCCC2 | inactive: 96%
O=C(C1CC1)N1CCc2cc(Br)cc(S(=O)(=O)NCCCN3CCCC3)c21 | inactive: 100%
CCN(CC)S(=O)(=O)c1cc([N+](=O)[O-])ccc1N=Nc1c(O)[nH]c2ccccc12 | inconclusive: 125%
N#C/C(=C/c1ccc(N2CCCCCC2)o1)c1ccc(Cl)cc1 | inconclusive: 121%
COc1ccc(-c2nc(NC(=O)Cn3cnnn3)sc2C)cc1 | inconclusive: 96%
CCN(CC)c1ccc(/C=C(\C#N)c2nc(-c3cccs3)c(NC(C)=O)s2)cc1 | inconclusive: 133%
CC(C)(C)C(=O)OCC1OC(n2cnc(C(N)=O)n2)C(O)C1O (stereo not drawn) | active: 120% [activator]
CN(C)/C=N/c1nc2nccc(-c3cccs3)n2n1 | inconclusive: 92%
COc1ccccc1CN1C[C@@H]2C[C@@H](c3ccc(C)c(C)c3)N3CCC[C@@]23C1=O | inconclusive: 97%
CC1(C)Cc2c(oc3ncn4ncnc4c23)CO1 | inconclusive: 111%
Cc1ccc(NC(=S)NNC(=O)c2ccccc2O)c(C)c1 | inactive: 100%
CCOCCCn1c(=S)[nH]c2cc(C(=O)NCCCN(CC)CC)ccc2c1=O | inactive: 99%
CCC(C)NS(=O)(=O)c1ccc(NC(=O)c2ccc([N+](=O)[O-])cc2Cl)cc1 (stereo not drawn) | inactive: 101%
CCOC(=O)C1(Cc2cccc(F)c2)CCN(C(=O)c2cnc(C)cn2)CC1 | inactive: 99%

Structure (SMILES) | GTP binding activity (% of control)
Cc1csc(NC(=O)c2cc(-c3ccncc3)nc3ccccc23)n1 | inconclusive: 92%
COC(=O)[C@H](C)NC(=O)Nc1ccc(Oc2ccccc2)cc1 | inconclusive: 105%
Cc1ccc(C)n1-c1ccc(C(=O)NN=C2CCCC2)cc1 | inconclusive: 106%
CCOC(=O)N1CCN(Cc2cn[nH]c2-c2cc3ccccc3o2)CC1 | inconclusive: 63%
COc1ccc(C2CC(c3cccs3)=NN2C(=O)CSc2nncs2)cc1OC (stereo not drawn) | inconclusive: 93%
COc1ccccc1CN1CCNC(=O)C1CC(=O)NCc1c(C)n[nH]c1C (stereo not drawn) | inconclusive: 101%
Cc1onc(-c2ccccc2Cl)c1C(=O)Nc1sc2c(c1C(N)=O)CCC(C)C2 (stereo not drawn) | inactive: 105%
Cc1ccc(NC(=O)CN2C(=O)NC3(CCc4ccccc43)C2=O)cc1Cl (stereo not drawn) | inconclusive: 102%
COc1ccc(OCCSc2nc(N)cc(N)n2)cc1 | inconclusive: 89%
O=c1[nH]c2ccc(Cl)cc2c(O)c1Cc1ccccc1 | inconclusive: 89%
Cc1nnc(SCc2nc3ccccc3s2)n1-c1ccccc1 | inconclusive: 107%
Cn1c(=S)n(/N=C/c2ccc3c(c2)OCO3)c2ccccc21 | inconclusive: 110%
CN(C(=O)Cn1cccc1C1=NC(c2ccccc2)CO1)c1ccccc1 (stereo not drawn) | inactive: 101%
O=[N+]([O-])c1ccccc1S(=O)(=O)NC1CCCC1 | inactive: 100%
CCOc1ccc(-c2cc(C(=O)Nc3ccc4c(c3)OCCO4)c3ccccc3n2)cc1 | inconclusive: 90%
COc1ccc(C2=Nn3c(nnc3-c3ccccn3)SC2)cc1OC | inconclusive: 75%
Cc1ccc(-c2nnc3c4ccccc4c(C)nn23)cc1NC(=O)CN1CCOCC1 | inactive: 97%
Cc1cc(C(=O)NCC(=O)OCC(=O)NCCc2ccccc2)ccc1[N+](=O)[O-] | inactive: 100%
Cc1cc(C)n(CCCNC(=O)c2ccc(S(=O)(=O)NCc3ccco3)cc2)n1 | inconclusive: 103%
COCCNc1ncnc2nc[nH]c12 | inconclusive: 109%
CCC(C)N1C(=O)/C(=C/c2c(NCCCOC(C)C)nc3c(C)cccn3c2=O)SC1=S (stereo not drawn) | inconclusive: 235%
CNC(=O)c1ccsc1NC(=O)CCS(=O)(=O)c1ccccc1 | inconclusive: 94%
COc1ccc(OCCC(=O)NCC23CC4CC(CC(C4)C2)C3)cc1 | inactive: 95%
CCC(C)(C)C1CCC(=NNS(=O)(=O)c2ccc(C)c([N+](=O)[O-])c2)CC1 (stereo not drawn) | inconclusive: 95%

Structure (SMILES) | GTP binding activity (% of control)
COC(=O)c1cccc(NC(=O)Nc2ccc(Cl)c(Cl)c2)c1 | inconclusive: 106%
Cc1nnc2sc(SCC(=O)Nc3cccc(Cl)c3)nn2c1=O | inactive: 100%
O=C1CN(C(=O)CSc2nc3ccccc3c(=O)n2Cc2ccc(F)cc2)c2ccccc2N1 | inactive: 105%
CCC1=NN2C(=N)/C(=C\c3cccn3-c3ccc(C)cc3C)C(=O)N=C2S1 | inconclusive: 87%
CCOc1ccc(-n2c(C)nc3cc(C(=O)NCc4ccco4)ccc32)cc1 | inconclusive: 93%
CC(C)(C)C(=O)/C(C#N)=C/c1ccc(O)cc1 | inconclusive: 91%
O=C(CCOc1ccccc1)Nc1nnc(-c2ccc3c(c2)OCCO3)o1 | inactive: 90%
CC(C)OC(=O)CSc1nc(-c2ccc(F)cc2)nc2ccc(F)cc12 | inconclusive: 104%
COc1cc(Cn2c(-c3nonc3N)nc3ccccc32)ccc1C | inconclusive: 89%
C/C(=C\c1ccccc1)CN1CCN(c2ccccc2F)CC1 | inconclusive: 97%
NC(=S)N=Nc1c(O)[nH]c2ccccc12 | inactive: 87%
CCOC(=O)N1CCN(c2cc(=O)n(-c3ccc(Br)cc3)c(=O)[nH]2)CC1 | inconclusive: 109%
CC(=O)Nc1nc(SCCCc2ccccc2)n[nH]1 | inconclusive: 105%
CS(=O)(=O)c1ccc(Cl)c(NC(=O)c2ccc3ccccc3c2)c1 | inactive: 105%
Cc1ccc(NC(=O)NC2CCCCC2)cc1S(=O)(=O)N1CCOCC1 | inactive: 99%
Cc1c(Br)c([N+](=O)[O-])nn1CC(=O)Nc1c(C)n(C)n(-c2ccccc2)c1=O | inactive: 99%
CN(/N=C/c1ccco1)C1=NS(=O)(=O)c2ccccc21 | active: 64%
COc1ccc(-n2c(NC(=O)c3ccc(Br)o3)c(C#N)c3nc4ccccc4nc32)cc1 | active: 79%
CCOC(=O)Nc1nc(C)c(C(=O)c2ccc(Cl)cc2)s1 | inconclusive: 102%
CCc1nnc(NC(=O)CCC(=O)N2CCN(c3ccccn3)CC2)s1 | inconclusive: 28%
Cc1cccc2nc(CSc3nc4ccccc4[nH]3)cn12 | inconclusive: 93%
